Experimental data published in PubChem BioAssay AID1345083 (National Center for Advancing Translational Sciences (NCATS), 2018).
Values joined by “and” are separate entries in the source; they are usually repeats but may differ in a detail not shown here. Identical values can stand only once. In all, about 94,000 compounds went through this assay and about 6,200 (6.6%) were called active. Inconclusive means that the source gave no clear call. Such entries were picked first, then a sample of the others. The call rests on the fitted dose curve; in most records, active means well fitted inhibition curve with a large enough effect; inconclusive means small, poorly fitted or top-dose-only effect; inactive means flat fitted curve, though single readings scatter. Where the call is inconclusive, the potency comes from a doubtful curve fit.

Assay: Cytotoxic Profiling in HEK 293 Cell Line of Diverse Libraries Using Quantitative High-Throughput Screening; further: nearly all actives have a fitted effect of over 60% in size
Settings: HEK 293 viability, ATP luminescence (CellTiter-Glo), 48-72 h; series mostly up to 115 µM
How it was run: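 250 HEK 293 cells/well; compound by pintool; incubated 48 or 72 hr at 37 degree Celsius; CellTiter-Glo added, 10 min RT, luminescence imaged.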
Potency means the concentration at half of the fitted maximal effect; tags describe the fitted curve by direction and shape.

Compound | Potency
O=C1COc2ccc(-c3ccncc3)nc2CN1Cc1ccc(F)cc1 | inconclusive: 50.1 µM [inhibitor, partial curve, poor fit]
Cc1cc(C)nc(CNC(=O)c2ccc3nc(-c4ccc(F)cc4)cn3c2)n1 | inactive
CCCCc1ccc(NC(=O)Cn2ccn3nc(-c4ccccc4)c(CO)c3c2=O)cc1 | inactive
O=C(Cc1ccc(F)cc1)N1CCC2(C1)C(=O)N(CCc1ccccc1)c1ccccc12 (stereo not drawn) | active: 39.8 µM and active: 44.7 µM
O=C(c1ccccc1F)N1CCC(C(=O)N2CCC(N3CCOCC3=O)CC2)CC1 | inactive
COc1cc(CN2CCC3(CCNCC3)C2)cc(OC)c1OC | inconclusive: 100 µM [inhibitor, single point]
C[C@@H]1CN(C(=O)c2ccsc2)C[C@H]1c1nc(-c2ccncc2)no1 | inconclusive: 89.1 µM [inhibitor, single point]
COCc1nc(C2CC(N)C2)cc(N2CC(c3nccs3)C2)n1 (stereo not drawn) | inactive
CCOC(=O)[C@@H]1CN(C(=O)c2ncoc2-c2ccccc2)[C@H]2c3ccc(OC)cc3O[C@@H]12 | inconclusive: 89.1 µM [inhibitor, single point]
Cc1cccc(CNC(=O)c2cc3c(=O)[nH]c(C)cn3n2)c1 | inconclusive: 89.1 µM [inhibitor, single point]
O=C(NC1CCCC1)c1csc(N2CCN(c3ccccc3F)CC2)n1 | inconclusive: 35.5 µM [inhibitor, full curve, poor fit]
CCN(CC)c1ccc(C(=O)N2CCCC(n3cc(-c4nc(C(C)C)no4)nn3)C2)cc1 (stereo not drawn) | inconclusive: 44.7 µM [inhibitor, partial curve, poor fit]
COc1ccc(CNc2ncnc3c2CN(c2ccc(C)cc2)C(=O)N(C)C3)cc1OC | inactive
Cc1ncsc1CCNC(=O)c1cn(CCC2CCCCN2)nn1 (stereo not drawn) | inconclusive: 7.94 µM [inhibitor, full curve, poor fit]
CCOc1ccc(CC(=O)N2CCC[C@H]2c2nc(-c3ccccc3)no2)cc1OCC | inconclusive: 56.2 µM [inhibitor, partial curve, poor fit]
COc1ccc(-c2ccc(C(=O)NCc3ccc(F)cc3F)cc2)nn1 | inconclusive: 35.5 µM [inhibitor, full curve]
Cc1ccc(-c2nnc([C@H]3CCN(C(=O)c4ccccc4)C3)o2)cc1 | inconclusive: 126 µM [inhibitor, single point]
COCc1noc(-c2ccc(N(C)CC3CC(=O)N(C(C)(C)C)C3)nc2)n1 (stereo not drawn) | inconclusive: 39.8 µM [inhibitor, partial curve, poor fit]
O=C(c1ccc2n[nH]nc2c1)N1CCC2(CC1)Nc1ccccc1NC2=O | inactive
COc1ccc(N2CCN(C3CCCN(C/C=C/c4ccccc4OC)C3)CC2)cc1 (stereo not drawn) | inconclusive: 28.2 µM [inhibitor, full curve]
CC(C)CCNC(=O)CCC1CCN(C(=O)c2ccccc2F)CC1 | inactive
COc1cccc(CN2Cc3cc(NS(=O)(=O)c4ccccc4)ccc3OCC2=O)c1OC | inconclusive: 56.2 µM [inhibitor, partial curve, poor fit]
COc1cc(OC)c(NC(=O)CN2C(=O)NC3(CCOCC3)C2=O)cc1Cl | inactive

Compound | Potency
CC(C)C[C@@H]1N[C@H](C(=O)N2CCCC2)Cc2cn(Cc3ccccn3)c3cccc1c23 | active: 112 µM
COC(=O)N1CCN(Cc2ccccc2-c2ccccc2F)CC1 | inconclusive: 89.1 µM [inhibitor, single point]
CCc1cc(=O)n(CC(=O)Nc2cccc(C#N)c2)c(N2CCOCC2)n1 | inconclusive: 79.4 µM [inhibitor, partial curve, poor fit]
CC(=O)N1C[C@@H]2CCCN3CCC[C@@H]([C@H]23)[C@H]1CCCC(=O)N1CCC(C)CC1 | inactive
Cc1noc(-c2ccc(C(C)(C)C)cc2)c1C(=O)NCc1cc(F)cc(F)c1 | inconclusive: 28.2 µM [inhibitor, partial curve, poor fit]
Cc1cc(N2CCN(Cc3cc4n(n3)CCNC4)CC2)n2ncnc2n1 | inactive
Cc1ccc(-c2cc3c(=O)n(CCNC(=O)c4ccc[nH]c4=O)ccn3n2)cc1C | inactive
COc1ccc(Nc2ccnc(N3CCC(NC(=O)Nc4ccc(Cl)cc4)CC3)n2)cc1 | active: 20 µM
Cc1cc(=O)n(CC(=O)NCCCc2ccccc2)c(N2CCc3ccccc3C2)n1 | active: 44.7 µM
CCOC(=O)N1CCC(N(C)CC2CCN(CCc3ccc(F)cc3)CC2)CC1 | inconclusive: 89.1 µM [inhibitor, single point]
Cc1ccc(-c2cc(N3CCCN(C(=O)c4cccnc4)CC3)n[nH]2)cc1C | inactive
CSc1ncc(C(=O)N2CCC(c3nccn3CCN(C)C)CC2)cn1 | inactive
CC(C)(C)c1cc(CC2(NCc3ccccc3O)COC2)no1 | inconclusive: 112 µM [inhibitor, partial curve, poor fit]
COc1cc(OC)cc(C(=O)NC2CCCN(c3cc(-c4ccc(F)cc4)[nH]n3)C2)c1 (stereo not drawn) | active: 44.7 µM
COc1ccc(S(=O)(=O)N[C@H]2C[C@@H](c3nc(-c4ccc(C)cc4)no3)N(C)C2)cc1 | active: 79.4 µM
COc1ccc(NC(=O)O[C@@H]2CO[C@H]3[C@@H]2OC[C@@H]3NS(=O)(=O)c2cccc3cccnc23)cc1 | inactive
CCCOc1cc(C)c2c(c1C)C[C@H](C(C)C(=O)N1CCOCC1)CC2 (stereo partly drawn) | inconclusive: 126 µM [inhibitor, single point]
O=C(CCc1conc1-c1ccccc1F)NCc1cccc(Cl)c1 | inconclusive: 70.8 µM [inhibitor, partial curve, poor fit]
CCN1CCC2(CC1)Cc1ccccc1CN(C(=O)CCC(=O)O)C2 | inactive
COc1ccccc1Nc1ncc2c(n1)CN(C(=O)c1cccc(N(C)C)c1)CCN2 | active: 79.4 µM
CC1CCC(NC(=O)C2CCN(C(=O)c3ncn4c3COC(c3ccccc3)C4)CC2)CC1 (stereo not drawn) | inactive
COc1ccc(N2CC(C(=O)NCCc3ccc(Cl)cc3)NC2=O)cc1 (stereo not drawn) | inactive
Cc1ccsc1CNC(=O)c1cccc(C#CC(C)(C)O)c1 | inconclusive: 56.2 µM [inhibitor, partial curve, poor fit]

Compound | Potency
COc1ccc(-c2nc(C3CC3)nc3c2CCN(Cc2cccc4ccccc24)CC3)cc1 | inconclusive: 79.4 µM [inhibitor, partial curve, poor fit]
COCCCNC(=O)c1ccc2nc(-c3ccncc3)oc2c1 | inactive
O=C(NCc1ccccc1)N1CCC(Cc2nc(-c3ccccc3)n[nH]2)C1 (stereo not drawn) | inconclusive: 100 µM [inhibitor, single point]
CCCN1CCC2(CCN(C(=O)COC)CC2)Oc2ccccc21 | inconclusive: 112 µM [inhibitor, partial curve, poor fit]
Cc1ccc(OCC(=O)N2CC[C@@](O)(C3CCOCC3)[C@H](C)C2)cc1 | inactive
Cc1ccccc1C(=O)N1CCC(Cc2nc(-c3ccccc3)no2)CC1 | inconclusive: 44.7 µM [inhibitor, partial curve, poor fit]
NC1CCN(Cc2ccc(C(=O)NCc3ccc(S(N)(=O)=O)cc3)c(=O)[nH]2)C1 (stereo not drawn) | inactive
O=C(c1ccc2[nH]ccc2c1)N1CCC(N2C(=O)C3(CCCCC3)C2c2ccncc2)CC1 (stereo not drawn) | inconclusive: 89.1 µM [inhibitor, partial curve, poor fit]
Cc1ncoc1C(=O)N1CC[C@H](CO)[C@H](N(C)C)C1 | inactive
O=C(c1ccccc1F)N1CCC(C(=O)N2CCCC2c2nc3ccncc3[nH]2)CC1 (stereo not drawn) | inactive
C#CCN(CC=C)Cc1cnc(S(=O)(=O)CC)n1CCCc1ccccc1 | inconclusive: 44.7 µM [inhibitor, partial curve, poor fit]
Cc1cnc(CC2CCN(C(=O)COc3ccc(F)cc3)CC2)n1Cc1ccccc1 | inconclusive: 56.2 µM [inhibitor, partial curve, poor fit]
COCC(=O)NC1CCN(C(=O)c2ccc(-c3ccc(OC)nn3)cc2)C1 (stereo not drawn) | inactive
COC(=O)c1ccc2c(c1)nc1n2[C@@H](CNCc2ccc(F)c(F)c2)COC1 | inconclusive: 63.1 µM [inhibitor, full curve, poor fit]
CC1Oc2ccc(NC(=O)c3c(F)cccc3F)cc2CN(CCc2ccc(F)cc2)C1=O (stereo not drawn) | inconclusive: 79.4 µM [inhibitor, partial curve]
COc1ccccc1CN1CCn2c(nn(-c3ccc([N+](=O)[O-])cc3)c2=O)C1 | inconclusive: 56.2 µM [inhibitor, partial curve, poor fit]
Cc1cnc(NC(=O)c2ccc3c(c2)OCCN(c2ccccc2)C3)s1 | inconclusive: 11.2 µM [inhibitor, full curve]
COC1CCC12CCN(Cc1scnc1C)CC2 (stereo not drawn) | inconclusive: 89.1 µM [inhibitor, single point]
CN1CCC(C(=O)N2Cc3ccccc3OC3(CCN(C(=O)N(C)C)CC3)C2)CC1 | inactive
c1ccc(CN(Cc2nc(-c3ccccn3)no2)CC2CC2)cc1 | inconclusive: 44.7 µM [inhibitor, partial curve, poor fit]
CC(C)CC1=NS(=O)(=O)c2cc(NC(=O)C3CCC3)ccc2N1c1ccccc1 | inconclusive: 63.1 µM [inhibitor, partial curve, poor fit]
O=C(NCc1c[nH]c2ncccc12)c1ccc(C(F)(F)F)cc1 | inconclusive: 112 µM [inhibitor, partial curve, poor fit]
